Measurements taken from the supplement of paper PMC6531468.
The other results are listed elsewhere or left out. Values come from read counts of a selection and are noisy. Scores sum up all selected molecules that hold the word; the word was not tested alone.

test system: IMP3 KH1-4; assay: 6-mer SELEX enrichment z-score vs GST control; IMP3 is the RNA-binding protein IGF2BP3; higher = more enriched by binding; conditions: construct: KH1-4 (164-579); SELEX round: R4
Procedure: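 SELEX-seq with GST-tagged IMP3 KH1-4 (Pro164-Lys579) and an N40 RNA pool, round 4. 6-mer z-score of sequence-tag enrichment normalised to the corresponding GST SELEX round; RNA k-mers written as DNA (T for U).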

IMP3 KH1-4, sequence (chain, as listed by the source): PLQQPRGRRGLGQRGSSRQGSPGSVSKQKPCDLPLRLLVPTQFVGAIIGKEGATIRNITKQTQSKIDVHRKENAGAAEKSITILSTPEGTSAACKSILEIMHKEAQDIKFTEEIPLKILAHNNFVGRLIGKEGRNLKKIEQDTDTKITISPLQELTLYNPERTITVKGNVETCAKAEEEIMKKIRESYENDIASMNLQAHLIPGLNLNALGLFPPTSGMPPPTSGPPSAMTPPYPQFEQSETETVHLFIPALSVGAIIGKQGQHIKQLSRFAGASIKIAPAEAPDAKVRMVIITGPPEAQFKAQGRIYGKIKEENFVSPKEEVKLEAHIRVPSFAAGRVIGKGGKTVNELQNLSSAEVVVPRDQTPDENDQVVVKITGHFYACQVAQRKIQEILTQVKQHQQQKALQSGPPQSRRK

Sequence	6-mer SELEX enrichment z-score
CTCAAA	-1.31
CTGCCG	-0.222
AAGTTT	-0.214
TAGGAG	0.562
AGTGTT	-0.353
CTTTTC	0.84
GTCCAT	0.593
CTCGCA	-0.326
TTTGAA	0.542
GTTTTG	-0.322
CCGAAG	-1.49
TCATGG	0.292
TTGTCG	-0.013
TGAACC	-0.861
CGGACA	0.517
AGTTCA	0.262
GAGTCT	-0.204
GACGGT	-0.251
ATGTAC	0.398
CTCCTC	0.092

Sequence	6-mer SELEX enrichment z-score
TCCTGA	-0.569
TGATAT	1.16
TTGCAG	0.519
TCTTAG	-0.105
TCCTTT	1.18
CATAAA	1.5
TGGCCA	0.785
CTTGTA	-0.093
CTTGTC	-0.099
CTGGGG	0.047
GCGCGC	-0.128
ACCTCA	-0.943
GCATGC	0.564
TGGCGA	-0.205
CATGCC	-0.281
ATGTGC	0.587
TCTTAC	0.239
CTCCGC	-0.403
GGAGTC	0.645
TAGATA	0.711
